In PubChem BioAssay (NCI):
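A five-concentration, 48-hour dose response in 96-well plates underlies each endpoint, interpolated linearly between surrounding concentrations. Abbreviation: GI50, concentration required for 50% inhibition of growth.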 For part of its entries the source gives two or more results. They are shown here; other results are not. The source may hold further records. For some of these results: A record mostly stands for its own series of concentrations, not given here; a value can be the end of its range. For some of these results: The values listed for one entry are repeats across runs, samples, wells, individuals or studies. Records carry a tag for their origin. The letters are not those of the source and start again with each entry.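 Definition used: TGI = concentration required for complete inhibition of growth.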

Experiments:
Assay in all cases: NCI anticancer screen, dose series, 48 h
HCC-2998 colon = system: HCC-2998 colon
SR leukemia = system: SR leukemia
T-47D breast = system: T-47D breast
RPMI-8226 leukemia = system: RPMI-8226 leukemia
LOX IMVI melanoma = system: LOX IMVI melanoma
HCT-15 colon = system: HCT-15 colon
UO-31 renal = system: UO-31 renal
NCI-H226 lung = system: NCI-H226 lung
SK-MEL-5 melanoma = system: SK-MEL-5 melanoma
CAKI-1 renal = system: CAKI-1 renal
MDA-MB-231 breast = system: MDA-MB-231 breast
UACC-62 melanoma = system: UACC-62 melanoma
SN12C renal = system: SN12C renal
ACHN renal = system: ACHN renal
OVCAR-4 ovarian = system: OVCAR-4 ovarian
BT-549 breast = system: BT-549 breast
MCF7 breast = system: MCF7 breast
SK-OV-3 ovarian = system: SK-OV-3 ovarian
NCI/ADR-RES ovarian = system: NCI/ADR-RES ovarian
KM12 colon = system: KM12 colon

Cn1ncc(Cl)c1-c1cc(C(=O)N[C@H](CN)Cc2ccc(F)c(F)c2)oc1Cl
GI50 (HCC-2998 colon): 1.12 µM [sample A, mean of 2 tests] and 92.4 nM [sample B, mean of 2 tests]
GI50 (SR leukemia): 28.7 nM [sample A, 1 test] and 1.51 µM [sample B, 1 test]
TGI (T-47D breast): 235 nM [sample A, mean of 2 tests] and 3.22 µM [sample B, mean of 2 tests]

C/C(=C\c1csc(C)n1)[C@@H]1C[C@@H]2O[C@@H]2CCC[C@H](C)[C@H](O)[C@@H](C)C(=O)C(C)(C)[C@@H](O)CC(=O)O1
TGI (RPMI-8226 leukemia): 4.64 nM and > 100 µM
TGI (LOX IMVI melanoma): 250 nM and > 100 µM
TGI (HCT-15 colon): 428 nM and 27.8 µM
TGI (UO-31 renal): 234 nM and > 100 µM
TGI (NCI-H226 lung): 267 nM and > 100 µM
TGI (SK-MEL-5 melanoma): 188 nM and 11.9 µM
TGI (CAKI-1 renal): 319 nM and > 100 µM
TGI (MDA-MB-231 breast): 108 nM and > 100 µM
TGI (UACC-62 melanoma): 447 nM and 25.3 µM
TGI (SN12C renal): 954 nM and > 100 µM

Cc1cc([N+](=O)[O-])c2ccccc2[n+]1[O-]
TGI (SR leukemia): > 42.8 µM [sample A, mean of 2 tests] and 3.29 µM [sample B, mean of 2 tests]

CCCCCCCCCCCCCC[C@@H](O)[C@H]1CC[C@H]([C@H]2CC[C@H]([C@H](O)CCCCCC[C@@H](O)CC3=C[C@H](C)OC3=O)O2)O1
TGI (ACHN renal): 2.43 µM and > 25 µM

CC[C@H](C)[C@H](NC(=O)[C@H]1CCCCN1C)C(=O)N(C)[C@H](C[C@@H](OC(C)=O)c1nc(C(=O)N[C@@H](Cc2ccccc2)C[C@H](C)C(=O)O)cs1)C(C)C
GI50 (OVCAR-4 ovarian): 24.5 nM and 1.65 nM
TGI (BT-549 breast): 36.7 nM and < 1.65 nM
GI50 (MCF7 breast): 0.147 nM and 1.65 nM
TGI (SK-OV-3 ovarian): 27.8 nM and > 16.5 µM
GI50 (UACC-62 melanoma): 0.151 nM and 1.65 nM
TGI (NCI/ADR-RES ovarian): 52.3 nM and 2.51 nM
TGI (KM12 colon): 43.4 nM and > 16.5 µM
